Molecules are shown by their SMILES. Values joined by “and” are separate entries in the source; they are usually repeats but may differ in a detail not shown here. Equal values may be shown once.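 How tested: cells in 96-well plates exposed to compound for 48 hours at five concentrations. GI50 = concentration required for 50% inhibition of growth. TGI marks complete inhibition of growth.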 Numbered stars: 1 amine (or outer) side, 2 acyl side, 3 side chain; on linkers, the order of the positions; unused ones are H or OH. Square brackets hold non-standard residues; d marks the D form. Peptide text beside a SMILES is read from it. * marks the point of attachment. X27 = CC(=O)N(C)SCC(N[*:1])C(=O)[*:2]; X43 = CC(=O)N(C)SCC(N*)/C(O)=N\O; Cbz = O=C(OCc1ccccc1)*; Boc = CC(C)(C)OC(=O)*; Bz = O=C(c1ccccc1)*; Bn = c1ccc(C*)cc1; For = O=C* A value given as a limit tells only on which side of the number the result lay.

This experiment relates to NCI-H322M lung. The experiment in a line: NCI anticancer screen, dose series, 48 h.
Consider `COc1ccc2oc(=O)cc(C(c3ccc[nH]3)c3ccc[nH]3)c2c1`, for which the GI50 is 0.118 µM and the TGI worked out at 16 µM. `O=C(/C=C1\N=C(c2ccccc2)N(c2nc3ccc(Sc4ccccc4)cc3[nH]2)C1=O)/C=C/c1ccccc1` came in with a TGI greater than 100 µM. Same read-out and setting: in the case of `Cc1ccc(S(=O)(=O)N[C@H](C(=O)O)c2ccccc2)cc1` it was greater than 100 µM; in that of `COc1ccccc1/C=C(\C#N)c1ccccc1`, greater than 100 µM; in that of `Cc1ccc(S(=O)(=O)N2CCCN(S(=O)(=O)c3ccc(C)cc3)CCN(S(=O)(=O)c3ccc(C)cc3)CCCSCC2)cc1`, greater than 100 µM.

For `Cc1cc(N(CCC#N)CCC#N)ccc1/C(N=Nc1ccc(Cl)cc1)=N\NC(=O)c1cc(Cl)ccc1O`, the TGI is greater than 100 µM. On to `NC(=O)c1nnc2ccc(F)cc2c1N`, for which the TGI is greater than 100 µM.

Take `O=C(Nc1cccc(-n2ccc3c(NC(=O)c4ccccc4)nccc32)c1)c1ccc(N2CCOCC2)c(C(F)(F)F)c1`: the GI50 is 0.0994 µM and the TGI was greater than 100 µM.

`NCCNc1c2c(c(NCCN)c3c(CO)c[nH]c13)C(=O)c1ccccc1C2=O`: the GI50 was 5.38 µM and the TGI was 38.6 µM. In turn, `O=C[C@@H](CO)O[C@H](C=O)c1c[nH]c(=O)[nH]c1=O` showed a TGI of 321 µM. For the compound `CC12CCC3C(CCC4Cc5[nH]c6ccccc6c5CC43C)C1CCC2O` (stereo not given), the GI50 was 4.56 µM and the TGI was greater than 100 µM. On to `Nc1cc2c3c(c1)Oc1cc(N)cc4c1C3c1c(cc(N)cc1O4)O2`, for which the TGI was greater than 80.6 µM. In the case of `C=CC[n+]1c(/C=C/C=C2\N(C)c3ccccc3C2(C)C)sc2ccc(OC)cc21`, the GI50 is 0.531 µM and the TGI was 13 µM.

As for `CCCCCCCCCCCCNC(C)=O`, the TGI is 58.3 µM.

`CCC1=NC(N/N=C/c2ccco2)=N/C1=C\c1ccccc1O` returned a TGI greater than 100 µM. The same measure, in the same setting: as for `O=C(Nc1ccccc1-c1n[nH]c(=S)[nH]c1=O)C(F)(F)F`, the figure is greater than 100 µM; as for `Cc1cc2nc(C(C)C(=O)c3ccc(Cl)cc3)c(=O)[nH]c2cc1C` (stereo not given), greater than 100 µM. Turning to `COc1cc(C2c3[nH]c4ccccc4c3C[C@H]3COC(=O)N23)cc(OC)c1OC` (stereo not given in full), the GI50 was less than 0.01 µM and the TGI was greater than 100 µM. Take `N/C(=N\N=C/c1ccccc1O)NO`: the TGI is greater than 100 µM.

`CN(C)CCOc1cccc2c1C(=O)c1ccccc1C2=O` registered a TGI of 34.5 µM. For the compound `Nc1ccc(S(=O)(=O)Nc2nnc(S(N)(=O)=O)s2)cc1`, the TGI was greater than 100 µM. With `Cc1cccc(NC(=O)CCc2ccc(N3C(N)=NC(N)=NC3(C)C)cc2)c1`, the GI50 was 3.62 µM and the TGI was greater than 100 µM.

`Cc1ccc(NC(=O)c2cc3cc(N=Nc4ccc(Br)cc4)ccc3oc2=O)cc1` registered a TGI greater than 100 µM. Consider `O=C1c2ccccc2-c2c1c1ccccc1c(=O)n2CCCCNCCCn1c2c(c3ccccc3c1=O)C(=O)c1ccccc1-2`, for which the GI50 is 1.11 µM and the TGI turned out to be 4.32 µM.

Take `COc1cc(C2SCC(=O)N2c2cc(Cl)c(Cl)cc2Cl)cc(OC)c1OC` (stereo not given): the TGI was greater than 100 µM. `COc1ccc(Oc2cccc(/C=C3/C(=O)Nc4ccccc43)c2)cc1` came in with a TGI of 33.6 µM. Still for that read-out and setting: in the case of `Cc1c(NC(=S)NN)c(=O)n(-c2ccccc2)n1C` it was greater than 100 µM. In the case of `CCN1CCN(Cc2ccc(-c3cc4c(N[C@H](C)c5ccccc5)ncnc4[nH]3)cc2)CC1`, the GI50 was 0.0633 µM and 0.163 µM; the TGI was 15.1 µM and > 10 µM.

The compound `CC[C@@]1(N(C)C)C(=O)OCc2c1cc1n(c2=O)Cc2cc3ccccc3nc2-1` came in with a TGI greater than 100 µM. `COc1cc2c(cc1O)CC[C@@H]1[C@@H]2CC[C@]2(C)[C@@H](NCCN(C)C)CC[C@@H]12`: the GI50 was 0.395 µM and the TGI was 1.06 µM. In turn, `Cc1c(N2CCCC2)cc2c(c1NC(=O)c1ccccc1Cl)C(C)(C)CC2(C)C` had a TGI of 27.7 µM. In the case of `NC(=O)NNCc1ccccc1`, the TGI is greater than 100 µM. Still for that read-out and setting: in the case of `CN(C)CCOc1ccc2[nH]c(C(=O)N3CC(CCl)c4c3cc(N)c3ccccc43)cc2c1` (stereo not given) it was 1.78 µM; in that of `CCOc1ccccc1NC(=O)CC1C(=O)Nc2ccccc2S1=O` (stereo not given), greater than 100 µM. In the case of `COC(=O)CCc1cc(OC)c(O)c(C(Cc2ccc(OC)c(OC)c2)C(=O)OC)c1` (stereo not given), the TGI is greater than 100 µM. Consider `Nc1ccc2c(c1)C(=O)C(=O)c1c-2nc2ccccn12`, for which the GI50 was 2.06 µM and the TGI is 4.56 µM. `CC[C@]1(O)C[C@H]2CN(CCc3c([nH]c4ccccc34)[C@@](C(=O)OC)(c3cc4c(cc3OC)N(C=O)[C@H]3[C@@](O)(C(=O)OC)[C@H](OC(C)=O)[C@]5(CC)C=CCN6CC[C@]43[C@@H]65)C2)C1`: the TGI is 128 µM and 122 µM. In turn, `O=C1c2c(Cl)c(Cl)c(Cl)c(Cl)c2C(=O)N1CCN(c1c(Cl)ssc1=O)c1c(Cl)ssc1=O` returned a TGI greater than 100 µM.

Consider `CS(=O)(=O)c1ccc(/C=N/NC(N)=S)cc1`, for which the TGI was greater than 100 µM. Consider `F`, for which the GI50 was 6100 µM and the TGI is greater than 6870 µM.

With `C=C1C(=O)O[C@H]2[C@H]1CC/C(CNC(=O)Cc1c[nH]c3ccccc13)=C\CC[C@@]1(C)O[C@@H]21`, the GI50 is 13.5 µM and the TGI came to 27.3 µM. Take `CCOC(=O)C1(C(N)=O)C(=O)c2ccncc2C1=O` (stereo not given): the TGI was greater than 100 µM.

With `CCc1ccc(N=Cc2cc(OC)c(OC)c(OC)c2)cc1`, the TGI was greater than 100 µM. The same measure, in the same setting: in the case of `O=C(OCc1ccccc1CN1CCOCC1)c1cccc(Br)c1` it was greater than 100 µM. Still for that read-out and setting: as for `O=C(Nc1nnc(-c2ccccc2)o1)C(SC(=S)N1CCCCC1)c1ccccc1` (stereo not given), the figure is 64.4 µM. For `CC[C@]12CCCN3CCc4c(n(c5ccccc45)C(=O)C1)[C@@H]32`, the TGI is greater than 100 µM. Turning to `Cn1cc(-c2ccc3c(Nc4cccc(NC(=O)Nc5cccc(F)c5)c4)ncnc3c2)cn1`, the GI50 is 3.03 µM and the TGI is 10.5 µM.

Compound `O=c1cc(NCCCCCO)[nH]c(=O)[nH]1` registered a TGI greater than 100 µM. Same read-out and setting: in the case of `COc1cc(Cc2cc3c(c(C(=O)O)c2Br)OCO3)cc(OC)c1OC` it was greater than 100 µM.

`CC1(C)N=C(N)N=C(N)N1c1cccc(CCCCc2cccc(S(=O)(=O)F)c2)c1`: the GI50 is 5.72 µM and the TGI is greater than 100 µM. Compound `CC(C)(C)OC1=C(OC(C)(C)C)C(O)(c2ccccc2)C1=O` (stereo not given) returned a TGI greater than 100 µM. The same measure, in the same setting: in the case of `CC(NC(=O)C(Cc1ccc(OC(=O)c2ccccc2)cc1)NC(=O)OC(C)(C)C)C(=O)NC(Cc1ccccc1)C(=O)NCC(N)=O` (stereo not given) (Boc-Y(Bz)AFG-NH2; configuration not given here) it was 35.1 µM. For the compound `C[C@@H]1COCCN1c1cc(C2([S@](C)(=N)=O)CC2)nc(-c2ccnc3[nH]ccc23)n1`, the GI50 is 1.54 µM and 1.47 µM; the TGI was greater than 100 µM.

For the compound `C=CCn1c(=O)c2ccccc2[n+]2c(C)c(C(=O)OCC)sc12`, the TGI was greater than 100 µM. Same read-out and setting: as for `COC(=O)[C@@]12C(=O)C=CC(=O)[C@@H]1C1C(=CC2COC(C)=O)O[C@@H]2OC3(CCCCC3)O[C@H]12` (stereo not given in full), the figure is 31.6 µM; as for `CO/N=C(\C)c1ccc(Nc2c3ccccc3nc3occc23)cc1`, 18.6 µM.

`CN1N=CSC12C(=O)N(c1ccc(Cl)cc1)C(=O)N2c1ccc(Cl)cc1` (stereo not given) showed a TGI of 89.1 µM. The same measure, in the same setting: in the case of `CC(=O)N(C)SCC(NC(=O)C(Cc1ccccc1)NC(=O)OCc1ccccc1)C(=O)NC(Cc1ccccc1)C(=O)NC(Cc1cn(C=O)c2ccccc12)C(=O)NC(CCCCNC(=O)OCc1ccccc1)C(=O)NC(C(=O)NC(CSN(C)C(C)=O)/C(O)=N\O)C(C)OCc1ccccc1` (stereo not given) (Cbz-F[X27]FW(For)K(Cbz)T(Bn)-X43; configuration not given here) it was greater than 100 µM. For `Cc1ccc(-c2nc(C)c(C(=O)Nc3ccc(Cl)cc3)s2)cc1`, the TGI was determined as 49.1 µM. `OCC1OC(n2nc(-c3ccccc3)nc2-c2cnccn2)C(O)C(O)C1O` (stereo not given): the TGI is greater than 100 µM.

As for `COc1cc2c(/C=C3/C(=O)N(C)c4ccccc43)c(Cl)[nH]c2cc1C`, the TGI amounted to 29.5 µM. `COc1cc(C=O)ccc1Oc1nnnn1-c1ccccc1` registered a TGI greater than 100 µM.

The compound `COc1cc(/C=C/c2ccncc2)cc(OC)c1OC` registered a TGI greater than 100 µM. For the compound `COc1cc(NS(C)(=O)=O)ccc1Nc1c2ccc([N+](=O)[O-])cc2nc2c(C)cccc12`, the GI50 is 5.23 µM and the TGI was determined as 21.7 µM. In turn, `CC1(C)CC23C4COC(=O)C2CCC1C3CC4=O` (stereo not given) gave a TGI of 78.8 µM.

`C/C(CC/C(C)=N/O)=N\O` had a TGI greater than 100 µM. In turn, `CCOC(=O)CN1C(=O)c2c(c(C)n(-c3ccccc3)c2C)C1=O` had a TGI greater than 100 µM. The same measure, in the same setting: as for `O=C(O)c1cc2ccccc2c(N=Nc2ccccc2)c1O`, the figure is greater than 100 µM. Take `O=C(O)CCNc1ccccc1C(=O)O`: the TGI was greater than 100 µM. For `COC(=O)CCC(=O)C(=O)OC`, the GI50 was 26500 µM.

Regarding `COc1ccc(-c2cc(-c3cc(Cl)ccc3Cl)nc3n[nH]c(N)c23)cc1`, the GI50 is 50.3 µM and the TGI was greater than 100 µM. Take `CCCCC[C@H](O)/C=C/[C@@H]1[C@@H](C/C=C\CCCC(=O)O)[C@@H](O)C[C@H]1O`: the GI50 was greater than 100 µM and the TGI is greater than 100 µM. In turn, `CC1CC[C@]2(C(=O)O)CCC3(COC(=O)/C=C\c4ccc(O)cc4)C(=CCC4[C@@]5(C)CC[C@H](O)C(C)(C)C5CC[C@]43C)[C@@H]2[C@H]1C` (stereo not given in full) came in with a TGI of 42.3 µM.

As to `CCOC(=O)c1c2c(c(O)c3ccccc3c(O)n(Cc3ccc(OC)cc3)c1C)C(=O)C=CC2=O`, the GI50 was greater than 100 µM and the TGI is greater than 100 µM. Take `Cc1ccc2c(c1)C(C)Cc1c(ncnc1-n1cnc3ccccc31)N2C` (stereo not given): the GI50 was 0.647 µM and the TGI stood at 24 µM. Compound `Brc1ccc2[nH]cc(-c3csc(-c4ccccn4)n3)c2c1` came in with a TGI of 47.8 µM.

The compound `COc1cc(C2SC(N)=Nc3c2c(C)nn3C(=O)c2ccccc2O)cc(OC)c1OC` (stereo not given) came in with a TGI greater than 10 µM. `O=C1C(Cl)=C(Nc2cccc(Cl)c2)C(=O)N1Cc1ccccc1`: the GI50 was 16.7 µM and the TGI was determined as 36.4 µM. With `NCC(=O)NC1(c2cc3ccccc3s2)CCCCC1`, the TGI was greater than 100 µM. Still for that read-out and setting: as for `N#Cc1ccccc1NC(=O)/C(=N\N)C(C(=O)c1ccncc1)C1OC(=O)c2ccccc21` (stereo not given), the figure is greater than 100 µM.

Consider `Cc1cccc(C(C)C)c1NC(=O)C(=O)CC(=O)c1sc(Nc2ccccc2Cl)nc1C`, for which the TGI was greater than 100 µM. The same measure, in the same setting: in the case of `Nc1sc2c(c1C(=O)c1ccc(Cl)c(Cl)c1)CCCC2` it was greater than 100 µM; in that of `CC(=O)OC1=c2ccccc2=C(O)C2C1C=NN2C(C)=O` (stereo not given), greater than 100 µM.
